{"source": "PubChem BioAssay AID1347417", "about": "(National Center for Advancing Translational Sciences (NCATS), 2020)", "note": "Screen size: about 120,000 compounds; about 5,300 (4.4%) were called active. The shares of active, inactive and inconclusive entries below differ from those in the screen. Calls follow the shape of the dose curve; as a rule, active = well fitted inhibition curve with a large enough effect; inconclusive = small, poorly fitted or top-dose-only effect; inactive = no such curve, though single readings can be large or run the other way. Where the call is inconclusive, the potency comes from a doubtful curve fit. Potency is read from the fitted curve at half-maximal effect; tags tell the direction and shape of the fitted curve.", "data": [{"test": "qHTS Primary assay for Inhibitors of Plasmodium falciparum Dd2 growth in vitro; also: nearly all actives have a fitted effect of over 65% in size;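 as to activity, negative = inhibition: plate controls were DMSO vehicle for no effect and reference drug for full effect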", "settings": "P. falciparum Dd2 growth, SYBR Green, 72 h; activity, negative = inhibition: at 28.9 µM (top of the series) unless noted; series mostly up to 28.9 µM", "outline": "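Infected erythrocytes (Dd2, 0.3% parasitemia, 2.5% hematocrit final) are added to compound in RPMI-1640/Albumax II medium, grown 72 h at 37C in low oxygen, then lysed with saponin/Triton-X containing SYBR Green and read by fluorescence.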", "values": [{"smiles": "C[C@@H]1CN(C(=O)Cc2cccnc2)C[C@H]1c1nc(-c2ccncc2)no1", "Potency": "inactive"}, {"smiles": "CC(C)Cc1noc(-c2ccc(N3CCC(O)CC3)nc2)n1", "Potency": "inactive"}, {"smiles": "Cc1ccccc1NC(=O)CSc1nc2ccc(NC(=O)CCc3ccccc3)cc2s1", "Potency": "inconclusive: 8.91 µM [inhibitor, single point]"}, {"smiles": "CN(C)Cc1nnc(C2CC(NC(=O)c3conc3-c3ccccc3)C2)n1C", "note": "(centres undefined)", "Potency": "inactive"}, {"smiles": "COc1ccc(-c2noc(-c3ccc(N4C[C@H]5CC[C@H]4C5)nc3)n2)cc1", "Potency": "inactive"}, {"smiles": "CS(=O)(=O)N1CCCC1c1noc(CCC(=O)N2CCC(N3CCCCC3)CC2)n1", "note": "(centres undefined)", "Potency": "inactive"}, {"smiles": "O=C1NC2(CN(C(=O)Cc3ccccc3)C2)Oc2ccccc21", "Potency": "inactive"}, {"smiles": "COCCOC1CCN(C(=O)c2cccs2)CC1", "Potency": "inactive"}, {"smiles": "CCc1ccc(NC(=O)C2CCc3nc(N4CCN(C(=O)C(C)C)CC4)sc3C2)cc1", "note": "(centres undefined)", "Potency": "inconclusive: 2 µM [inhibitor, full curve, poor fit]"}, {"smiles": "Cc1cc(Cl)ccc1OCCN1CCN(CC2(O)CCCNC2)CC1", "note": "(centres undefined)", "Potency": "active: 8.91 µM"}, {"smiles": "COc1cc(OC)c(CN2CCCCCC2c2ccco2)c(OC)c1", "note": "(centres undefined)", "Potency": "inconclusive: 3.98 µM [inhibitor, partial curve]"}, {"smiles": "O=C(C1[C@H]2CNC[C@@H]12)N1CCC(c2nccn2Cc2ccncc2)CC1", "note": "(some centres undefined)", "Potency": "inactive"}, {"smiles": "CN(C)C(=O)c1ccc(OC2CCN(C(=O)c3ccccc3F)CC2)nc1", "Potency": "inactive"}, {"smiles": "COc1cccc(NC(=O)Cn2c(=O)n(-c3ccccc3)c(=O)c3ccc(C(=O)NCc4ccc5c(c4)OCO5)cc32)c1", "Potency": "inconclusive: 17.8 µM [inhibitor, single point]"}, {"smiles": "CN1CCCCCC(O)c2cc(C(=O)N3CCN(Cc4ccccc4)CC3)ccc21", "note": "(centres undefined)", "Potency": "inconclusive: 0.562 µM [inhibitor, partial curve]"}, {"smiles": "CCC(=O)N1CCc2sc(C(=O)NC3CCN(Cc4ccccc4)CC3)cc2C1", "Potency": "inconclusive: 14.1 µM [inhibitor, single point]"}, {"smiles": "CNC1CCN(c2ccc(-c3nc(CCCc4ccccc4)no3)cn2)CC1", "Potency": "inconclusive: 14.1 µM [inhibitor, single point]"}, {"smiles": "C[S+](=O)([O-])N1CC2ON=C(C(=O)NCc3ccc(F)cc3)C2C1", "note": "(centres undefined)", "Potency": "inactive"}, {"smiles": "NCCCC(=O)N1CCCC(N2CCN(Cc3ccc4c(c3)OCO4)CC2)C1", "note": "(centres undefined)", "Potency": "inactive"}, {"smiles": "CC(=O)N1CCc2c(sc3c2c(=O)n(CCc2ccccc2)c(=O)n3CC(=O)Nc2ccccc2F)C1", "Potency": "inconclusive: 17.8 µM [inhibitor, single point]"}, {"smiles": "O=C(CCc1ccccc1)NCc1ccc2c(c1)CCN2C(=O)c1ccccc1", "Potency": "inactive"}, {"smiles": "CC(C)(C)c1ccc(CN2CC3(COCC2=O)CN(c2cnccn2)C3)cc1", "Potency": "inconclusive: 12.6 µM [inhibitor, single point]"}, {"smiles": "O=S(=O)(c1cccnc1)N1CC(c2noc(C3CCCN3CC3CC3)n2)C1", "note": "(centres undefined)", "Potency": "active: 6.31 µM"}, {"smiles": "CC(C)C(=O)N1Cc2ccccc2CC2(CCCN(Cc3ccncc3)C2)C1", "note": "(centres undefined)", "Potency": "inconclusive: 7.94 µM [inhibitor, partial curve]"}, {"smiles": "COc1ccc(N2CCN(c3nc(C(=O)N4CCCC(C)C4)cs3)CC2)cc1", "note": "(centres undefined)", "Potency": "inconclusive: 7.94 µM [inhibitor, partial curve, poor fit]"}, {"smiles": "CCS(=O)(=O)N1CCCCCCN(C)C(=O)CC1", "Potency": "inactive"}, {"smiles": "O=C(NCc1cccc(F)c1)c1nc2c(o1)CCN(Cc1ccc3[nH]ccc3c1)CC2", "Potency": "inconclusive: 11.2 µM [inhibitor, single point]"}, {"smiles": "Cc1ccc(N(CC(O)Cn2c3ccccc3c3ccccc32)S(=O)(=O)c2ccc(F)cc2)cc1", "note": "(centres undefined)", "Potency": "active: 12.6 µM"}, {"smiles": "COCCNC(=O)c1ccc2c(c1)N(C)C(CC(=O)N1CCC(N)CC1)CO2", "note": "(centres undefined)", "Potency": "inactive"}, {"smiles": "COc1cc(NC(=O)N2c3ccccc3CC2c2nc(C3CC3)no2)cc(OC)c1", "note": "(centres undefined)", "outcome": "inactive [at 5.79 µM]"}, {"smiles": "COc1ccc(CCNc2ncnc3onc(-c4ccc(Cl)cc4)c23)c(OC)c1", "Potency": "inconclusive: 11.2 µM [inhibitor, single point]"}, {"smiles": "CN1CCN(C(=O)C2CCc3nc(N4CCN(C(=O)C5CCC5)CC4)sc3C2)CC1", "note": "(centres undefined)", "Potency": "inconclusive: 3.98 µM [inhibitor, single point]"}, {"smiles": "CCC1=C(C(=O)OC)C(c2cccc(F)c2)N2C(CC(=O)N3CCC(C)CC3)=CSC2=N1", "note": "(centres undefined)", "Potency": "inconclusive: 1.26 µM [inhibitor, partial curve, poor fit]"}, {"smiles": "COc1ccc(CCNC(=O)c2ccc3c(c2)N(Cc2cccc(Cl)c2)C(=O)c2ccccc2S3=O)cc1OC", "note": "(centres undefined)", "Potency": "inconclusive: 15.8 µM [inhibitor, single point]"}, {"smiles": "COc1ccc(CC(=O)NC2CCN(c3cc(-c4ccc(Cl)cc4)[nH]n3)C2)cc1OC", "note": "(centres undefined)", "Potency": "active: 7.94 µM"}, {"smiles": "O=C(NCCc1noc(C2CC2)n1)c1ccc2c(c1)OCO2", "Potency": "inactive"}, {"smiles": "CCCCN1C(=O)c2ccccc2C(C(=O)NCCc2ccc(OC)cc2)C12CCCCC2", "note": "(centres undefined)", "Potency": "inconclusive: 3.98 µM [inhibitor, single point]"}, {"smiles": "CN(CCCNC(=O)c1cc2c(=O)n(C)c3ccccc3c2s1)Cc1ccccc1", "Potency": "active: 10 µM"}, {"smiles": "O=C(Cn1c(=O)n(-c2ccccc2)c(=O)c2ccc(C(=O)NCc3ccc4c(c3)OCO4)cc21)Nc1ccc(F)c(Cl)c1", "Potency": "inconclusive: 15.8 µM [inhibitor, single point]"}, {"smiles": "COc1ccc(CNC(=O)C2CN(S(=O)(=O)C3CC3)CC23CCCCC3)cc1", "note": "(centres undefined)", "Potency": "inconclusive: 17.8 µM [inhibitor, single point]"}, {"smiles": "Clc1ccc(N2CCN(CC3[C@H]4CNC[C@@H]34)CC2)nc1", "note": "(some centres undefined)", "Potency": "inconclusive: 11.2 µM [inhibitor, single point]"}, {"smiles": "O=C(c1ccc2c(c1)ncn2CCO)N1CCCC(CCc2ccccc2F)C1", "note": "(centres undefined)", "Potency": "inconclusive: 2.82 µM [inhibitor, single point]"}, {"smiles": "CN(C)C[C@@H]1CN(Cc2ccccn2)C[C@H]1NC(=O)c1ccc(Cl)s1", "Potency": "inconclusive: 5.01 µM [inhibitor, partial curve, poor fit]"}, {"smiles": "Cc1cc(-c2nc3ccncc3[nH]2)c(C)o1", "Potency": "inconclusive: 25.1 µM [inhibitor, single point]"}, {"smiles": "CC(C)c1cnc2c(c1SCC(=O)Nc1ccc(C(N)=O)cc1)c(=O)n(C)c(=O)n2C", "Potency": "inconclusive: 7.94 µM [inhibitor, partial curve]"}, {"smiles": "CCn1nc(C)c(CN2CCCC(CNC(=O)c3cccc(OC)c3OC)C2)c1C", "note": "(centres undefined)", "Potency": "inconclusive: 14.1 µM [inhibitor, single point]"}, {"smiles": "COc1ccc(C2(C(=O)N3CCC4(CC3)NCCc3c4[nH]c4ccccc34)CC2)cc1", "Potency": "inconclusive: 4.47 µM [inhibitor, partial curve, poor fit]"}, {"smiles": "CCCNC(=O)N[C@@H]1C[C@H](Cn2cc(-c3cccnc3)nn2)[C@@H](O)[C@H]1O", "Potency": "inactive"}, {"smiles": "CCN1CCCC12Cc1ccccc1CN(C(=O)Cc1ccccc1)C2", "note": "(centres undefined)", "Potency": "inconclusive: 15.8 µM [inhibitor, partial curve, poor fit]"}, {"smiles": "N#Cc1c[nH]c(C(=O)N2CCN(Cc3cn[nH]n3)CC(O)C2)c1", "note": "(centres undefined)", "Potency": "inactive"}, {"smiles": "CCN(C(=O)c1cn(C)c(=O)c2ccccc12)c1cccc(C)c1", "Potency": "inconclusive: 10 µM [inhibitor, partial curve, poor fit]"}, {"smiles": "Cn1nnnc1SCCCNCc1ccccc1OCc1ccc(F)cc1", "activity, negative = inhibition": "inconclusive: -61% [inhibitor] [at 0.594 µM]"}, {"smiles": "COc1cccc(-c2noc(CC3CCN(C(=O)c4ccc(OC)cc4C)CC3)n2)c1", "Potency": "inconclusive: 17.8 µM [inhibitor, single point]"}, {"smiles": "CCn1ncc(N2CCC(NC(=O)Cc3cccc(OC)c3)CC2)cc1=O", "Potency": "inconclusive: 6.31 µM [inhibitor, partial curve]"}, {"smiles": "CCCC(=O)N1Cc2ccccc2CC2(CCCN(Cc3cccnc3)C2)C1", "note": "(centres undefined)", "Potency": "inconclusive: 10 µM [inhibitor, single point]"}, {"smiles": "CCc1ccc(N(CC)C(=O)c2sc3nc4n(c(=O)c3c2C)CCCC4)cc1", "Potency": "active: 11.2 µM"}, {"smiles": "NC(=O)N1CCCC(C(=O)NCc2ncc3c(n2)CCC3)C1", "note": "(centres undefined)", "Potency": "inactive"}, {"smiles": "CN1CCN(C(=O)c2ccc3c(c2)N(Cc2ccc(Cl)cc2)C(=O)c2ccccc2S3(=O)=O)CC1", "Potency": "inconclusive: 2.82 µM [inhibitor, single point]"}, {"smiles": "CCOc1ccccc1CNC(=O)[C@H]1CN(C(C)C)C[C@H]1C(=O)O", "Potency": "inactive"}, {"smiles": "O=C(NC1CCc2nn(CC3CC3)c(=O)n2CC1)c1ccc2cc[nH]c2c1", "note": "(centres undefined)", "Potency": "inactive"}, {"smiles": "C=CCN(C)C(=O)CC1COc2ccc(C(=O)N(C)C)cc2N1C", "note": "(centres undefined)", "Potency": "inactive"}, {"smiles": "Cc1ccc(C2Cn3nnc(C(=O)N4CCC(C(=O)NCCc5cccs5)CC4)c3CO2)cc1", "note": "(centres undefined)", "Potency": "inactive"}, {"smiles": "COc1cccc(-c2nc(SCC(=O)NCC3CCCO3)c(-c3ccc(Cl)cc3)[nH]2)c1", "note": "(centres undefined)", "Potency": "inconclusive: 20 µM [inhibitor, single point]"}, {"smiles": "O=C(CC1CCCC1)Nc1ccc2ncnc(N3CCCCC3)c2c1", "Potency": "inactive"}, {"smiles": "COc1cncc(Nc2ncc(-c3cccc(F)c3)c3c2OCC3)c1", "Potency": "active: 11.2 µM"}, {"smiles": "CN1C[C@@H](NC(=O)c2ccccn2)C[C@H]1c1nc(-c2ccc(OC(F)(F)F)cc2)no1", "Potency": "inconclusive: 12.6 µM [inhibitor, single point]"}, {"smiles": "COc1ccc(NC(=O)CN2C(=O)C(c3ccc(C)cc3)=NC23CCCCCC3)cc1Cl", "Potency": "inconclusive: 8.91 µM [inhibitor, partial curve, poor fit]"}, {"smiles": "COc1ccc(Cc2ncc3c(n2)CN(C(=O)c2cc(C)c(C)cc2C)C3)cc1", "Potency": "inconclusive: 10 µM [inhibitor, single point]"}, {"smiles": "COc1ccc(F)c(CN2CCCC3(CCN(C(=O)c4ccsc4)C3)C2)c1", "note": "(centres undefined)", "Potency": "inactive"}]}]}
